Experimental data from the supplement of paper PMC8728848.
The list shows a part of the results.

Experiments:
Test in all cases: glycan array binding signal (z-score within array); higher = stronger binding
Conditions in all cases: glycan notation: IUPAC condensed, linker removed
[1] = biological target: Fuc(a1-2)[GalNAc(b1-3)]Gal
Procedure, shortened: (§1)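 From the Consortium for Functional Glycomics database, 3228 arrays were curated, keeping only those whose protein sequence was available. Binding is given as a within-array Z-score averaged across arrays sharing a protein sequence and across linkers. Negative Z-scores can be read as non-binding.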

Fuc(a1-3)GlcNAc = biological target: Fuc(a1-3)GlcNAc
Procedure, shortened: as §1

[2] = biological target: Fuc(a1-3)[Gal(b1-4)]Glc6S
Procedure, shortened: as §1

[3] = biological target: Fuc(a1-3)[Gal(b1-4)]GlcNAc
Procedure, shortened: as §1

[4] = biological target: Fuc(a1-3)[Gal(b1-4)]GlcNAc(b1-2)Man
Procedure, shortened: as §1

[5] = biological target: Fuc(a1-3)[Gal(b1-4)]GlcNAc(b1-2)Man(a1-3)[Fuc(a1-3)[Gal(b1-4)]GlcNAc(b1-2)Man(a1-6)]Man(b1-4)GlcNAc(b1-4)GlcNAc
Procedure, shortened: as §1

[6] = biological target: Fuc(a1-3)[Gal(b1-4)]GlcNAc(b1-2)Man(a1-3)[Fuc(a1-3)[Gal(b1-4)]GlcNAc(b1-2)Man(a1-6)]Man(b1-4)GlcNAc(b1-4)[Fuc(a1-6)]GlcNAc
Procedure, shortened: as §1

[7] = biological target: Fuc(a1-3)[Gal(b1-4)]GlcNAc(b1-3)Gal(b1-3)[Fuc(a1-4)]GlcNAc
Procedure, shortened: as §1

[8] = biological target: Fuc(a1-3)[Gal(b1-4)]GlcNAc(b1-3)Gal(b1-4)[Fuc(a1-3)]GlcNAc
Procedure, shortened: as §1

[9] = biological target: Fuc(a1-3)[Gal(b1-4)]GlcNAc(b1-3)Gal(b1-4)[Fuc(a1-3)]GlcNAc(b1-3)Gal(b1-4)[Fuc(a1-3)]GlcNAc
Procedure, shortened: as §1

[10] = biological target: Fuc(a1-3)[Gal(b1-4)]GlcNAc(b1-3)GalNAc
Procedure, shortened: as §1

[11] = biological target: Fuc(a1-3)[Gal(b1-4)]GlcNAc(b1-6)GalNAc
Procedure, shortened: as §1

[12] = biological target: Fuc(a1-3)[Gal(b1-4)]GlcNAc(b1-6)[Gal(b1-3)GlcNAc(b1-3)]Gal(b1-4)Glc
Procedure, shortened: as §1

[13] = biological target: Fuc(a1-3)[Gal(b1-4)]GlcNAc6S
Procedure, shortened: as §1

[14] = biological target: Fuc(a1-3)[Gal3S(b1-4)]Glc
Procedure, shortened: as §1

[15] = biological target: Fuc(a1-3)[Gal3S(b1-4)]GlcNAc
Procedure, shortened: as §1

[16] = biological target: Fuc(a1-3)[Gal3S(b1-4)]GlcNAc6S
Procedure, shortened: as §1

[17] = biological target: Fuc(a1-3)[GalNAc(b1-4)]GlcNAc
Procedure, shortened: as §1

[18] = biological target: Fuc(a1-3)[GalNAc(b1-4)]GlcNAc6S
Procedure, shortened: as §1

Fuc(a1-4)GlcNAc = biological target: Fuc(a1-4)GlcNAc
Procedure, shortened: as §1

Fuc(b1-3)GlcNAc = biological target: Fuc(b1-3)GlcNAc
Procedure, shortened: as §1

Gal(a1-2)Gal = biological target: Gal(a1-2)Gal
Procedure, shortened: as §1

Gal(a1-3)Gal = biological target: Gal(a1-3)Gal
Procedure, shortened: as §1

Gal(a1-3)Gal(b1-3)GlcNAc = biological target: Gal(a1-3)Gal(b1-3)GlcNAc
Procedure, shortened: as §1

[19] = biological target: Gal(a1-3)Gal(b1-3)GlcNAc(b1-2)Man
Procedure, shortened: as §1

[20] = biological target: Gal(a1-3)Gal(b1-3)GlcNAc(b1-2)Man(a1-3)[Gal(a1-3)Gal(b1-3)GlcNAc(b1-2)Man(a1-6)]Man(b1-4)GlcNAc(b1-4)GlcNAc
Procedure, shortened: as §1

[21] = biological target: Gal(a1-3)Gal(b1-3)GlcNAc(b1-3)GalNAc
Procedure, shortened: as §1

[22] = biological target: Gal(a1-3)Gal(b1-3)GlcNAc(b1-6)GalNAc
Procedure, shortened: as §1

[23] = biological target: Gal(a1-3)Gal(b1-3)[Fuc(a1-4)]GlcNAc(b1-2)Man(a1-3)[Gal(a1-3)Gal(b1-3)[Fuc(a1-4)]GlcNAc(b1-2)Man(a1-6)]Man(b1-4)GlcNAc(b1-4)GlcNAc
Procedure, shortened: as §1

Gal(a1-3)Gal(b1-4)Glc = biological target: Gal(a1-3)Gal(b1-4)Glc
Procedure, shortened: as §1

Gal(a1-3)Gal(b1-4)GlcNAc = biological target: Gal(a1-3)Gal(b1-4)GlcNAc
Procedure, shortened: as §1

[24] = biological target: Gal(a1-3)Gal(b1-4)GlcNAc(b1-2)Man
Procedure, shortened: as §1

[25] = biological target: Gal(a1-3)Gal(b1-4)GlcNAc(b1-2)Man(a1-3)[Gal(a1-3)Gal(b1-4)GlcNAc(b1-2)Man(a1-6)]Man(b1-4)GlcNAc(b1-4)GlcNAc
Procedure, shortened: as §1

[26] = biological target: Gal(a1-3)Gal(b1-4)GlcNAc(b1-3)GalNAc
Procedure, shortened: as §1

[27] = biological target: Gal(a1-3)Gal(b1-4)GlcNAc(b1-6)GalNAc
Procedure, shortened: as §1

[28] = biological target: Gal(a1-3)Gal(b1-4)[Fuc(a1-3)]GlcNAc
Procedure, shortened: as §1

[29] = biological target: Gal(a1-3)Gal(b1-4)[Fuc(a1-3)]GlcNAc(b1-2)Man(a1-3)[Gal(a1-3)Gal(b1-4)[Fuc(a1-3)]GlcNAc(b1-2)Man(a1-6)]Man(b1-4)GlcNAc(b1-4)GlcNAc
Procedure, shortened: as §1

Gal(a1-3)GalNAc = biological target: Gal(a1-3)GalNAc
Procedure, shortened: as §1

[30] = biological target: Gal(a1-3)[Gal(a1-4)]Gal(b1-4)GlcNAc
Procedure, shortened: as §1

[31] = biological target: Gal(a1-4)Gal(b1-3)GlcNAc(b1-2)Man(a1-3)[Gal(a1-4)Gal(b1-3)GlcNAc(b1-2)Man(a1-6)]Man(b1-4)GlcNAc(b1-4)GlcNAc
Procedure, shortened: as §1

Gal(a1-4)Gal(b1-4)Glc = biological target: Gal(a1-4)Gal(b1-4)Glc
Procedure, shortened: as §1

Gal(a1-4)Gal(b1-4)GlcNAc = biological target: Gal(a1-4)Gal(b1-4)GlcNAc
Procedure, shortened: as §1

[32] = biological target: Gal(a1-4)Gal(b1-4)GlcNAc(b1-2)Man(a1-3)[Gal(a1-4)Gal(b1-4)GlcNAc(b1-2)Man(a1-6)]Man(b1-4)GlcNAc(b1-4)GlcNAc
Procedure, shortened: as §1

[33] = biological target: Gal(a1-4)Gal(b1-4)GlcNAc(b1-3)Gal(b1-4)Glc
Procedure, shortened: as §1

Gal(a1-4)GlcNAc = biological target: Gal(a1-4)GlcNAc
Procedure, shortened: as §1

B1: CFEM-CGl (Candida glabrata), Q6FRS0 (protein)
chain: VLATPPACLLACVAQVSKQSSQCHTLNQVGCFCENENTAIKNCLDSICPNGNSDAAYTAFKNSCGDVGKAVASV
For B1, which “glycan array binding signal (z-score)” value [1] is on record?
Its value is -0.399.

And the “glycan array binding signal (z-score)” value (Fuc(a1-3)GlcNAc)?
The value was -0.338.

And the “glycan array binding signal (z-score)” value [2]?
Its value is 0.385.

What about the “glycan array binding signal (z-score)” value [3] of the same binder?
Its value is -0.26.

And the “glycan array binding signal (z-score)” value [4]?
The value was 0.39.

And the “glycan array binding signal (z-score)” value [5]?
Its value is 0.641.

And the “glycan array binding signal (z-score)” value [6]?
The value was -0.347.

What about the “glycan array binding signal (z-score)” value [7] of the same binder?
The value was -0.484.

What about the “glycan array binding signal (z-score)” value [8] of the same binder?
Its value is -0.095.

And the “glycan array binding signal (z-score)” value [9]?
Its value is -0.405.

And the “glycan array binding signal (z-score)” value [10]?
The value was 1.07.

What about the “glycan array binding signal (z-score)” value [11] of the same binder?
The value was 1.66.

And the “glycan array binding signal (z-score)” value [12]?
The value was -0.421.

And the “glycan array binding signal (z-score)” value [13]?
The value was 0.162.

And the “glycan array binding signal (z-score)” value [14]?
Its value is -0.009.

And the “glycan array binding signal (z-score)” value [15]?
The value was -0.184.

And the “glycan array binding signal (z-score)” value [16]?
The value was 0.702.

And the “glycan array binding signal (z-score)” value [17]?
Its value is -0.139.

What about the “glycan array binding signal (z-score)” value [18] of the same binder?
The value was -0.476.

And the “glycan array binding signal (z-score)” value (Fuc(a1-4)GlcNAc)?
Its value is -0.026.

What about the “glycan array binding signal (z-score)” value (Fuc(b1-3)GlcNAc) of the same binder?
The value was -0.346.

And the “glycan array binding signal (z-score)” value (Gal(a1-2)Gal)?
Its value is -0.073.

What about the “glycan array binding signal (z-score)” value (Gal(a1-3)Gal) of the same binder?
Its value is -0.361.

And the “glycan array binding signal (z-score)” value (Gal(a1-3)Gal(b1-3)GlcNAc)?
Its value is -0.314.

And the “glycan array binding signal (z-score)” value [19]?
The value was -0.042.

What about the “glycan array binding signal (z-score)” value [20] of the same binder?
Its value is -0.158.

What about the “glycan array binding signal (z-score)” value [21] of the same binder?
The value was -0.369.

And the “glycan array binding signal (z-score)” value [22]?
Its value is 0.089.

What about the “glycan array binding signal (z-score)” value [23] of the same binder?
The value was -0.08.

What about the “glycan array binding signal (z-score)” value (Gal(a1-3)Gal(b1-4)Glc) of the same binder?
Its value is -0.376.

What about the “glycan array binding signal (z-score)” value (Gal(a1-3)Gal(b1-4)GlcNAc) of the same binder?
Its value is -0.172.

What about the “glycan array binding signal (z-score)” value [24] of the same binder?
The value was -0.401.

And the “glycan array binding signal (z-score)” value [25]?
Its value is -0.147.

What about the “glycan array binding signal (z-score)” value [26] of the same binder?
Its value is -0.325.

And the “glycan array binding signal (z-score)” value [27]?
Its value is -0.193.

What about the “glycan array binding signal (z-score)” value [28] of the same binder?
Its value is -0.1.

What about the “glycan array binding signal (z-score)” value [29] of the same binder?
The value was 0.334.

What about the “glycan array binding signal (z-score)” value (Gal(a1-3)GalNAc) of the same binder?
The value was -0.246.

And the “glycan array binding signal (z-score)” value [30]?
The value was -0.286.

What about the “glycan array binding signal (z-score)” value [31] of the same binder?
Its value is -0.389.

And the “glycan array binding signal (z-score)” value (Gal(a1-4)Gal(b1-4)Glc)?
Its value is -0.153.

What about the “glycan array binding signal (z-score)” value (Gal(a1-4)Gal(b1-4)GlcNAc) of the same binder?
Its value is 0.004.

What about the “glycan array binding signal (z-score)” value [32] of the same binder?
Its value is -0.261.

And the “glycan array binding signal (z-score)” value [33]?
The value was -0.362.

And the “glycan array binding signal (z-score)” value (Gal(a1-4)GlcNAc)?
The value was 0.181.
